Some of the results follow.
B1: PhoQ; a variant is named by its letters at X, in order, P23837 (parent)
chain: MKKLLRLFFPLSLRVRFLLATAAVVLVLSLAYGMVALIGYSVSFDKTTFRLLRGESNLFYTLAKWENNKLHVELPENIDKQSPTMTLIYDENGQLLWAQRDVPWLMKMIQPDWLKSNGFHEIEADVNDTSLLLSGDHSIQQQLQEVREDDDDAEMTHSVAVNVYPATSRMPKLTIVVVDTIPVELKSSYMVWSWFIYVLSANLLLVIPLLWVAAWWSLRPIEALAKEVRELEEHNRELLNPATTRELTSLVRNLNRLLKSERERYDKYRTTLTDLTHSLKTPLXXLQXXLRSLRSEKMSVSDAEPVMLEQISRISQQIGYYLHRASMRGGTLLSRELHPVAPLLDNLTSALNKVYQRKGVNISLDISPEISFVGEQNDFVEVMGNVLDNACKYCLEFVEISARQTDEHLYIVVEDDGPGIPLSKREVIFDRGQRVDTLRPGQGVGLAVAREITEQYEGKIVAGESMLGGARMEVIFGRQHSAPKDE

Variants of: B1
Assay: enrichment ratio after two sorts for PhoP signalling (ratio (wild type AVST 3.29)); higher = more functional
Settings: with PhoP (E. coli)

Row | Variant | enrichment ratio
1 | LHPA | 0.304
2 | RGMP | ≤ 0.25
3 | QMDY | ≤ 0.25
4 | NSFP | ≤ 0.25
5 | WEGL | ≤ 0.25
6 | TMWH | ≤ 0.25
7 | RFMS | ≤ 0.25
8 | NRHL | ≤ 0.25
9 | KHDH | ≤ 0.25
10 | SEHQ | ≤ 0.25
11 | AWYC | ≤ 0.25
12 | QHGQ | ≤ 0.25
13 | YYAC | ≤ 0.25
14 | NFRV | ≤ 0.25
15 | QFLF | ≤ 0.25
16 | DPND | ≤ 0.25
17 | RIRM | ≤ 0.25
18 | FVMG | ≤ 0.25
19 | MQWT | 21.2
20 | LKSS | ≤ 0.25
21 | NFMR | ≤ 0.25
22 | QANC | ≤ 0.25
23 | QMER | ≤ 0.25
24 | DWIE | ≤ 0.25

Row | Variant | enrichment ratio
25 | QDPV | ≤ 0.25
26 | RNYR | ≤ 0.25
27 | SHEQ | ≤ 0.25
28 | PTCH | ≤ 0.25
29 | NMGC | ≤ 0.25
30 | IAWA | ≤ 0.25
31 | IYEE | ≤ 0.25
32 | FNSS | ≤ 0.25
33 | IMPE | ≤ 0.25
34 | EGFG | ≤ 0.25
35 | AGAK | 10.2
36 | RLQL | ≤ 0.25
37 | WPFH | ≤ 0.25
38 | IFQS | ≤ 0.25
39 | FTSH | ≤ 0.25
40 | GHII | ≤ 0.25
41 | IIAI | ≤ 0.25
42 | GGRI | ≤ 0.25
43 | IDGM | ≤ 0.25
44 | SVVF | ≤ 0.25
45 | TCVL | ≤ 0.25
46 | NCYQ | ≤ 0.25
47 | DRIC | ≤ 0.25
48 | VGAH | ≤ 0.25

Row | Variant | enrichment ratio
49 | NWYI | ≤ 0.25
50 | YNIL | ≤ 0.25
51 | KWFS | ≤ 0.25
52 | IYED | ≤ 0.25
53 | RMDI | ≤ 0.25
54 | IMEI | ≤ 0.25
55 | VDEC | ≤ 0.25
56 | AMWW | ≤ 0.25
57 | WFAA | ≤ 0.25
58 | KNPQ | ≤ 0.25
59 | ISFQ | ≤ 0.25
60 | KHHA | ≤ 0.25
61 | LWSM | ≤ 0.25
62 | HDQL | ≤ 0.25
63 | HLIR | ≤ 0.25
64 | EPSQ | ≤ 0.25
65 | RFVV | ≤ 0.25
66 | SNMD | 1.49
67 | CITI | ≤ 0.25
68 | RIAW | ≤ 0.25
69 | YPYM | ≤ 0.25
70 | YRMR | ≤ 0.25
71 | KMTS | ≤ 0.25
72 | SDMD | ≤ 0.25

Row | Variant | enrichment ratio
73 | SFEG | ≤ 0.25
74 | LAAC | ≤ 0.25
75 | AQSW | ≤ 0.25
76 | GSEQ | 4.27
77 | RDEQ | ≤ 0.25
78 | WASF | ≤ 0.25
79 | ELSY | ≤ 0.25
80 | QRES | ≤ 0.25
81 | PPTT | ≤ 0.25
82 | PTDE | ≤ 0.25
83 | LTFV | 1.99
84 | NYCW | ≤ 0.25
85 | DCIA | ≤ 0.25
86 | ITHC | ≤ 0.25
87 | QMLR | ≤ 0.25
88 | VARL | ≤ 0.25
89 | IQKT | ≤ 0.25
90 | PHIL | ≤ 0.25
91 | ETMW | ≤ 0.25
92 | DWGC | ≤ 0.25
93 | FLRT | ≤ 0.25
94 | DCTY | ≤ 0.25
95 | ACRM | ≤ 0.25
96 | YGAC | ≤ 0.25

Row | Variant | enrichment ratio
97 | NDRH | ≤ 0.25
98 | EFQV | ≤ 0.25
99 | LFTY | ≤ 0.25
100 | QWVH | ≤ 0.25
101 | SFKP | ≤ 0.25
102 | DCTC | ≤ 0.25
103 | DPLD | ≤ 0.25
104 | VMFW | ≤ 0.25
105 | YECV | 22.8
106 | YITP | ≤ 0.25
107 | PCFT | ≤ 0.25
108 | VSGL | 0.557
109 | EKAA | ≤ 0.25
110 | WEEL | ≤ 0.25
111 | AFRR | ≤ 0.25
112 | EGPR | ≤ 0.25
113 | SYSK | ≤ 0.25
114 | GSGP | ≤ 0.25
115 | HVYP | ≤ 0.25
116 | YACW | ≤ 0.25
117 | VAYF | ≤ 0.25
118 | SYWH | ≤ 0.25
119 | TYWL | ≤ 0.25
120 | TRVR | ≤ 0.25

Row | Variant | enrichment ratio
121 | TFTL | 8.74
122 | NRPS | ≤ 0.25
123 | FLDG | ≤ 0.25
124 | PMIS | ≤ 0.25
125 | SQTK | ≤ 0.25
126 | HLRA | ≤ 0.25
127 | LWGM | ≤ 0.25
128 | FPTW | ≤ 0.25
129 | QDTE | ≤ 0.25
130 | RCFG | ≤ 0.25
131 | FAFQ | ≤ 0.25
132 | WDVT | ≤ 0.25
133 | PIYI | ≤ 0.25
134 | SHRQ | ≤ 0.25
135 | MQLG | 22
136 | HSCP | ≤ 0.25
137 | RTPA | ≤ 0.25
138 | EERR | ≤ 0.25
139 | DTHW | ≤ 0.25
140 | VDAV | ≤ 0.25
141 | TVPQ | ≤ 0.25
142 | VMLA | ≤ 0.25
143 | GHWT | ≤ 0.25
144 | KQYL | ≤ 0.25

Row | Variant | enrichment ratio
145 | HTAG | ≤ 0.25
146 | RQDF | ≤ 0.25
147 | VNDA | ≤ 0.25
148 | KQWW | ≤ 0.25
149 | MIQF | ≤ 0.25
150 | IRMI | ≤ 0.25
151 | WYHL | ≤ 0.25
152 | NTKD | ≤ 0.25
153 | LTIM | ≤ 0.25
154 | KVPH | ≤ 0.25
155 | EELF | ≤ 0.25
156 | SCDP | ≤ 0.25
157 | KAML | ≤ 0.25
158 | MMMG | ≤ 0.25
159 | WFIG | ≤ 0.25
160 | NHGP | ≤ 0.25
161 | MDNM | ≤ 0.25
162 | IYGH | ≤ 0.25
163 | TYDS | ≤ 0.25
164 | GKAI | ≤ 0.25
165 | REVR | ≤ 0.25
166 | VYFP | ≤ 0.25
167 | TPRK | ≤ 0.25
168 | YDHA | ≤ 0.25

Row | Variant | enrichment ratio
169 | PRLG | ≤ 0.25
170 | WNPP | ≤ 0.25
171 | EKVS | ≤ 0.25
172 | AFDL | ≤ 0.25
173 | KYKI | ≤ 0.25
174 | NDNN | ≤ 0.25
175 | QHQK | ≤ 0.25
176 | RVTF | ≤ 0.25
177 | SNWC | ≤ 0.25
178 | PGAG | ≤ 0.25
179 | KRPP | 1.72
180 | NAVF | ≤ 0.25
181 | NPFI | ≤ 0.25
182 | QIIN | ≤ 0.25
183 | MTHS | 0.279
184 | KQHM | ≤ 0.25
185 | YDFV | ≤ 0.25
186 | NLES | ≤ 0.25
187 | MCHK | ≤ 0.25
188 | LNGE | ≤ 0.25
189 | PWDH | ≤ 0.25
190 | PCNL | ≤ 0.25
191 | RCYI | ≤ 0.25
192 | TSYM | 7.76

Row | Variant | enrichment ratio
193 | QYFL | ≤ 0.25
194 | SWMF | ≤ 0.25
195 | QFTH | ≤ 0.25
196 | GCSS | 5.47
197 | QYAL | ≤ 0.25
198 | YIMW | ≤ 0.25
199 | TMKD | ≤ 0.25
200 | KNDT | ≤ 0.25
201 | HWYC | ≤ 0.25
202 | QTFS | ≤ 0.25
203 | KMAE | ≤ 0.25
204 | SYSI | 0.303
205 | YYIR | ≤ 0.25
206 | TYVA | ≤ 0.25
207 | PFNC | ≤ 0.25
208 | ANAW | ≤ 0.25
209 | PPNV | ≤ 0.25
210 | SKFI | ≤ 0.25
211 | MSMK | ≤ 0.25
212 | FRLW | ≤ 0.25
213 | LGLK | ≤ 0.25
214 | VQNI | ≤ 0.25
215 | MFKK | ≤ 0.25
216 | EGCC | ≤ 0.25

Row | Variant | enrichment ratio
217 | FRVP | ≤ 0.25
218 | MFAP | ≤ 0.25
219 | WPMQ | ≤ 0.25
220 | EGGT | ≤ 0.25
221 | RRHS | ≤ 0.25
222 | IQSY | ≤ 0.25
223 | NHVS | ≤ 0.25
224 | FFKH | ≤ 0.25
225 | VLYM | ≤ 0.25
226 | VPCA | ≤ 0.25
227 | IFES | ≤ 0.25
228 | YVVW | ≤ 0.25
229 | SQGG | 6.89
230 | MSQD | ≤ 0.25
231 | NIVC | ≤ 0.25
232 | LSCG | ≤ 0.25
233 | PRTI | ≤ 0.25
234 | DCYL | ≤ 0.25
235 | VHHP | ≤ 0.25
236 | MLWC | ≤ 0.25
237 | SMWR | ≤ 0.25
238 | AHRY | ≤ 0.25
239 | GKQP | ≤ 0.25
240 | IESA | ≤ 0.25

Row | Variant | enrichment ratio
241 | GCTP | ≤ 0.25
242 | WYKW | ≤ 0.25
243 | SGKC | ≤ 0.25
244 | IEYA | ≤ 0.25
245 | NSII | ≤ 0.25
246 | NDTA | ≤ 0.25
247 | LCHF | 0.306
248 | LSPM | ≤ 0.25
249 | GPSK | ≤ 0.25
250 | IVWT | ≤ 0.25
251 | DSEA | ≤ 0.25
252 | RDCQ | ≤ 0.25
253 | KNTF | ≤ 0.25
254 | DFHM | ≤ 0.25
255 | RVSS | ≤ 0.25
256 | VYLP | ≤ 0.25
257 | PHGI | ≤ 0.25
258 | ERVP | ≤ 0.25
259 | DKIC | ≤ 0.25
260 | QLWW | ≤ 0.25
261 | FAQN | ≤ 0.25
262 | PCFQ | ≤ 0.25
263 | MWYC | ≤ 0.25
264 | ILMP | ≤ 0.25

Row | Variant | enrichment ratio
265 | MVPC | ≤ 0.25
266 | WMWR | ≤ 0.25
267 | DDPV | ≤ 0.25
268 | ECDD | ≤ 0.25
269 | VIKL | ≤ 0.25
270 | GMGP | ≤ 0.25
271 | LRVC | ≤ 0.25
272 | MMGM | 1.99
273 | HYSC | ≤ 0.25
274 | EGIM | ≤ 0.25
275 | GTHN | ≤ 0.25
276 | PNMW | ≤ 0.25
277 | TCPD | ≤ 0.25
278 | VDLC | ≤ 0.25
279 | FFLS | ≤ 0.25
280 | WHCY | ≤ 0.25
281 | SKEH | ≤ 0.25
282 | TCCC | 10.8
283 | VWIV | ≤ 0.25
284 | LTGE | ≤ 0.25
285 | WGGC | ≤ 0.25
286 | RDND | ≤ 0.25
287 | QYGV | ≤ 0.25
288 | SLMR | ≤ 0.25

Row | Variant | enrichment ratio
289 | TMVE | ≤ 0.25
290 | KFSN | ≤ 0.25
291 | YPNI | ≤ 0.25
292 | PWGM | ≤ 0.25
293 | VFNG | ≤ 0.25
294 | NGSH | ≤ 0.25
295 | HSPF | ≤ 0.25
296 | THSP | ≤ 0.25
297 | ISIY | ≤ 0.25
298 | THAK | ≤ 0.25
299 | LGRY | ≤ 0.25
300 | VCEH | ≤ 0.25
301 | DDSN | ≤ 0.25
302 | FMSG | ≤ 0.25
303 | WYIN | ≤ 0.25
304 | PYFI | ≤ 0.25
305 | NNEY | ≤ 0.25
306 | GGWM | ≤ 0.25

— a collection of fitness landscapes (doi:10.1126/science.1257360)
